Test results: the BET-seq Pho4 binding data (Le et al. 2018)
The list shows a part of the results. Values were computed here from the reads of four pooled replicates and scatter widely.

These sequences were tested against T1, Pho4 (S. cerevisiae) (UniProt P07270) (assay: relative binding free energy (BET-seq); higher = weaker binding). Settings: reference: library average.
T1 sequence: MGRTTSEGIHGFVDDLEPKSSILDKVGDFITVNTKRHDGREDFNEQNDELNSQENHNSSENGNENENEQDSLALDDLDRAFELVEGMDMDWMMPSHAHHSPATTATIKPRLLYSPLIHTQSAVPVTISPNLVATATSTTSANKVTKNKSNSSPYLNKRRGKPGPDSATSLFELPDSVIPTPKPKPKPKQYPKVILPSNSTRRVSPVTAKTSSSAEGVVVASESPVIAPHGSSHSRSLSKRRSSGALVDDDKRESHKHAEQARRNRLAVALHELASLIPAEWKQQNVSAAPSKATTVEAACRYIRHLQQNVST

With AGTGGCACGTGTAGAT as the sequence, how does the “relative binding free energy” value read?
The value was -0.05 kcal/mol.

For TTTTACACGTGTGGCG, which “relative binding free energy” value is on record?
Its value is 0.18 kcal/mol.

Which “relative binding free energy” value does the source give for CTGGGCACGTGACTGG here?
The value was -0.14 kcal/mol.

Which “relative binding free energy” value does the source give for TGTTGCACGTGTTTAT here?
Its value is 0.01 kcal/mol.

With ATTTGCACGTGAGGTC as the sequence, how does the “relative binding free energy” value read?
The value was 0.13 kcal/mol.

With TCGTGCACGTGATTGG as the sequence, how does the “relative binding free energy” value read?
The value was -0.02 kcal/mol.

For GTGTGCACGTGCCTGG, which “relative binding free energy” value is on record?
The value was -0.13 kcal/mol.

How did the “relative binding free energy” value turn out when GATTTCACGTGGCTTG was run?
The value was 0.33 kcal/mol.

CGGATCACGTGGAGTG was tested. Which “relative binding free energy” value did it give?
Its value is 0 kcal/mol.

For TAGTGCACGTGTATAG, which “relative binding free energy” value is on record?
The value was -0.05 kcal/mol.

How did the “relative binding free energy” value turn out when CGGCTCACGTGGGTGT was run?
Its value is 0.19 kcal/mol.

With TAGTTCACGTGCGTTG as the sequence, how does the “relative binding free energy” value read?
Its value is 0.19 kcal/mol.

GAGTACACGTGGTAGG was tested. Which “relative binding free energy” value did it give?
The value was 0.09 kcal/mol.

AGGTTCACGTGACGGC was tested. Which “relative binding free energy” value did it give?
Its value is 0.39 kcal/mol.

With TTGGTCACGTGATTAG as the sequence, how does the “relative binding free energy” value read?
The value was 0.28 kcal/mol.

TTGTTCACGTGGCCTG was tested. Which “relative binding free energy” value did it give?
The value was 0.12 kcal/mol.

AGTAGCACGTGGTGTG was tested. Which “relative binding free energy” value did it give?
Its value is -0.12 kcal/mol.

For TAGTGCACGTGGTTTT, which “relative binding free energy” value is on record?
The value was 0.01 kcal/mol.

How did the “relative binding free energy” value turn out when TACGGCACGTGAGTGG was run?
Its value is 0.17 kcal/mol.

Which “relative binding free energy” value does the source give for AGCTTCACGTGTGCTT here?
Its value is 0.3 kcal/mol.

Which “relative binding free energy” value does the source give for ATGTTCACGTGCGATT here?
The value was 0.25 kcal/mol.

How did the “relative binding free energy” value turn out when TGGATCACGTGAGATA was run?
Its value is 0.33 kcal/mol.

Which “relative binding free energy” value does the source give for GGGGGCACGTGTCGGT here?
Its value is -0.04 kcal/mol.

With AATGGCACGTGGTTAG as the sequence, how does the “relative binding free energy” value read?
Its value is -0.08 kcal/mol.

TTGAGCACGTGTTCGG was tested. Which “relative binding free energy” value did it give?
Its value is -0.21 kcal/mol.

With GTCTTCACGTGAGAGT as the sequence, how does the “relative binding free energy” value read?
The value was 0.35 kcal/mol.

With ATTTGCACGTGAGCAT as the sequence, how does the “relative binding free energy” value read?
Its value is 0.07 kcal/mol.

ATGGGCACGTGCTGGA was tested. Which “relative binding free energy” value did it give?
Its value is -0.13 kcal/mol.

How did the “relative binding free energy” value turn out when GTGAGCACGTGTAAGG was run?
The value was 0.1 kcal/mol.

For ATGGCCACGTGTGGAT, which “relative binding free energy” value is on record?
The value was 0.03 kcal/mol.

With CGTGGCACGTGCTTGG as the sequence, how does the “relative binding free energy” value read?
The value was -0.1 kcal/mol.

GAATGCACGTGGAGGT was tested. Which “relative binding free energy” value did it give?
Its value is 0.02 kcal/mol.

GAAGTCACGTGGTTTT was tested. Which “relative binding free energy” value did it give?
The value was 0.06 kcal/mol.

How did the “relative binding free energy” value turn out when ACTTGCACGTGGTTGA was run?
Its value is -0.07 kcal/mol.

With AGAGCCACGTGGGGTA as the sequence, how does the “relative binding free energy” value read?
Its value is -0.21 kcal/mol.

For AGCTTCACGTGGGAGT, which “relative binding free energy” value is on record?
Its value is 0.22 kcal/mol.

Which “relative binding free energy” value does the source give for TGTCTCACGTGTAGGT here?
Its value is 0.24 kcal/mol.

With GGGATCACGTGATCTA as the sequence, how does the “relative binding free energy” value read?
The value was 0.47 kcal/mol.

GGTTACACGTGGAGCG was tested. Which “relative binding free energy” value did it give?
The value was 0.11 kcal/mol.

Which “relative binding free energy” value does the source give for TTTAACACGTGTATTG here?
The value was 0.08 kcal/mol.

Which “relative binding free energy” value does the source give for GTGTGCACGTGTTGGG here?
The value was 0.09 kcal/mol.

How did the “relative binding free energy” value turn out when TGCGTCACGTGCTTTT was run?
Its value is -0.1 kcal/mol.

ATAGGCACGTGATTTG was tested. Which “relative binding free energy” value did it give?
Its value is -0.08 kcal/mol.

Which “relative binding free energy” value does the source give for TGGTTCACGTGTCCTT here?
Its value is 0.15 kcal/mol.

How did the “relative binding free energy” value turn out when GGGACCACGTGTTGGA was run?
Its value is 0.02 kcal/mol.

GGGGACACGTGAGTGT was tested. Which “relative binding free energy” value did it give?
Its value is 0.25 kcal/mol.

For TCGGACACGTGTAGAA, which “relative binding free energy” value is on record?
The value was 0.39 kcal/mol.

Which “relative binding free energy” value does the source give for CACGTCACGTGAGGGG here?
The value was 0.15 kcal/mol.

TCCGACACGTGGGTTG was tested. Which “relative binding free energy” value did it give?
The value was 0.03 kcal/mol.

Which “relative binding free energy” value does the source give for AATTTCACGTGCTTGT here?
Its value is 0.14 kcal/mol.

TTTATCACGTGGCAAG was tested. Which “relative binding free energy” value did it give?
The value was 0.07 kcal/mol.

How did the “relative binding free energy” value turn out when GTGGCCACGTGCTGTT was run?
The value was -0.13 kcal/mol.

Which “relative binding free energy” value does the source give for GGGTACACGTGGTTAA here?
Its value is 0.05 kcal/mol.

With CAGGACACGTGTTGTG as the sequence, how does the “relative binding free energy” value read?
Its value is -0.06 kcal/mol.

How did the “relative binding free energy” value turn out when TTAACCACGTGGATGG was run?
Its value is 0.04 kcal/mol.

How did the “relative binding free energy” value turn out when ATTGGCACGTGATACG was run?
Its value is -0.02 kcal/mol.

With AGGTTCACGTGACGTG as the sequence, how does the “relative binding free energy” value read?
The value was 0.31 kcal/mol.

TGGGACACGTGGGGAA was tested. Which “relative binding free energy” value did it give?
Its value is -0.14 kcal/mol.

For GGGCGCACGTGTTTTG, which “relative binding free energy” value is on record?
The value was 0.1 kcal/mol.

CGGGTCACGTGGTGTG was tested. Which “relative binding free energy” value did it give?
Its value is 0.01 kcal/mol.

How did the “relative binding free energy” value turn out when TAATTCACGTGAGAGT was run?
Its value is 0.41 kcal/mol.

How did the “relative binding free energy” value turn out when TGTCGCACGTGAAGGG was run?
The value was 0.23 kcal/mol.

With ATGTACACGTGATGCG as the sequence, how does the “relative binding free energy” value read?
Its value is 0.06 kcal/mol.

With AGAGACACGTGGTGGG as the sequence, how does the “relative binding free energy” value read?
Its value is -0.1 kcal/mol.

For TGACTCACGTGGGGTG, which “relative binding free energy” value is on record?
The value was 0.07 kcal/mol.

GTTTTCACGTGCGTAT was tested. Which “relative binding free energy” value did it give?
The value was 0.28 kcal/mol.

How did the “relative binding free energy” value turn out when GTTATCACGTGGCTTT was run?
Its value is 0.31 kcal/mol.

How did the “relative binding free energy” value turn out when TAATTCACGTGGTACA was run?
Its value is 0.31 kcal/mol.

For ACTGTCACGTGTTTTT, which “relative binding free energy” value is on record?
The value was 0.1 kcal/mol.

With GGCGACACGTGGTGCG as the sequence, how does the “relative binding free energy” value read?
The value was 0.05 kcal/mol.

With TTTTACACGTGATATT as the sequence, how does the “relative binding free energy” value read?
The value was 0.32 kcal/mol.

Which “relative binding free energy” value does the source give for GATGGCACGTGCAAGG here?
Its value is 0.01 kcal/mol.

For GGTAGCACGTGAGCTG, which “relative binding free energy” value is on record?
Its value is 0.18 kcal/mol.

How did the “relative binding free energy” value turn out when ATGGGCACGTGGGAGA was run?
The value was -0.12 kcal/mol.

With TATTTCACGTGATCAT as the sequence, how does the “relative binding free energy” value read?
The value was 0.2 kcal/mol.

Which “relative binding free energy” value does the source give for GGGCTCACGTGCTTGT here?
Its value is 0.25 kcal/mol.

TGGGGCACGTGAAGAG was tested. Which “relative binding free energy” value did it give?
Its value is 0.12 kcal/mol.

How did the “relative binding free energy” value turn out when CGAGTCACGTGATGGG was run?
The value was 0.24 kcal/mol.

How did the “relative binding free energy” value turn out when CTAGTCACGTGTTGTA was run?
Its value is 0.07 kcal/mol.

How did the “relative binding free energy” value turn out when TGTAGCACGTGGGCGA was run?
Its value is -0.36 kcal/mol.

How did the “relative binding free energy” value turn out when GGTAGCACGTGGTACG was run?
The value was -0.1 kcal/mol.

For TATATCACGTGTTGCT, which “relative binding free energy” value is on record?
The value was 0.01 kcal/mol.

Which “relative binding free energy” value does the source give for GGCCGCACGTGGCGGG here?
The value was -0.14 kcal/mol.

With CAGGACACGTGGGGCG as the sequence, how does the “relative binding free energy” value read?
Its value is -0.02 kcal/mol.

GATAGCACGTGTGTTA was tested. Which “relative binding free energy” value did it give?
Its value is 0.03 kcal/mol.

ACGGCCACGTGAGGGT was tested. Which “relative binding free energy” value did it give?
The value was 0.06 kcal/mol.

How did the “relative binding free energy” value turn out when TTTATCACGTGCGGTC was run?
The value was 0.12 kcal/mol.

With TCTCGCACGTGATGGT as the sequence, how does the “relative binding free energy” value read?
The value was 0.09 kcal/mol.

With GCATGCACGTGTTGTG as the sequence, how does the “relative binding free energy” value read?
Its value is -0.02 kcal/mol.

How did the “relative binding free energy” value turn out when CTGGGCACGTGGGTCG was run?
The value was -0.3 kcal/mol.

Which “relative binding free energy” value does the source give for TTCGGCACGTGCGGTA here?
The value was -0.19 kcal/mol.

How did the “relative binding free energy” value turn out when GGGGTCACGTGCGCGT was run?
Its value is 0.03 kcal/mol.

With CGCTGCACGTGGAGGG as the sequence, how does the “relative binding free energy” value read?
The value was -0.1 kcal/mol.

How did the “relative binding free energy” value turn out when GTACGCACGTGGGTAG was run?
The value was -0.33 kcal/mol.

Which “relative binding free energy” value does the source give for AGTGTCACGTGCGGTC here?
The value was 0.04 kcal/mol.

Which “relative binding free energy” value does the source give for TTGGCCACGTGTTGCT here?
The value was -0.02 kcal/mol.

Which “relative binding free energy” value does the source give for TTATTCACGTGTGTAC here?
The value was 0.2 kcal/mol.

With AGCGTCACGTGGTGCG as the sequence, how does the “relative binding free energy” value read?
The value was -0.09 kcal/mol.

How did the “relative binding free energy” value turn out when TCAGTCACGTGGTTGT was run?
Its value is -0.02 kcal/mol.

ATCATCACGTGATGGT was tested. Which “relative binding free energy” value did it give?
Its value is 0.3 kcal/mol.

With TTTATCACGTGTAAAT as the sequence, how does the “relative binding free energy” value read?
Its value is 0.19 kcal/mol.

Which “relative binding free energy” value does the source give for GGAGGCACGTGTATGT here?
The value was 0.04 kcal/mol.

Which “relative binding free energy” value does the source give for TATATCACGTGTTAGG here?
Its value is 0.11 kcal/mol.

With CATTGCACGTGGGTGT as the sequence, how does the “relative binding free energy” value read?
The value was -0.01 kcal/mol.

How did the “relative binding free energy” value turn out when GTTCCCACGTGGTAGG was run?
Its value is -0.02 kcal/mol.

For GTTAGCACGTGGGAGC, which “relative binding free energy” value is on record?
Its value is -0.04 kcal/mol.

Which “relative binding free energy” value does the source give for CGTGACACGTGGTGGC here?
The value was -0.19 kcal/mol.

With GGCGTCACGTGGCGTA as the sequence, how does the “relative binding free energy” value read?
The value was 0.13 kcal/mol.

With TCGGGCACGTGTGGTT as the sequence, how does the “relative binding free energy” value read?
Its value is -0.05 kcal/mol.

AGTTGCACGTGAAGGA was tested. Which “relative binding free energy” value did it give?
The value was 0.08 kcal/mol.

Which “relative binding free energy” value does the source give for GATTCCACGTGAAGGG here?
The value was 0.29 kcal/mol.

For TCGGTCACGTGAATTT, which “relative binding free energy” value is on record?
The value was 0.38 kcal/mol.

How did the “relative binding free energy” value turn out when TATGGCACGTGTGGTG was run?
Its value is -0.04 kcal/mol.

With GTCTACACGTGGGGCG as the sequence, how does the “relative binding free energy” value read?
Its value is -0.06 kcal/mol.

How did the “relative binding free energy” value turn out when CGGGCCACGTGTGTGG was run?
The value was -0.12 kcal/mol.
